In all, about 350,000 compounds went through this assay and about 31,000 (8.9%) were called active. The inconclusive results got no clear call from the source; some entries with a clear call stand among them for comparison. Calls follow the shape of the dose curve; as a rule, active = well fitted inhibition curve with a large enough effect; inconclusive = small, poorly fitted or top-dose-only effect; inactive = no such curve, though single readings can be large or run the other way. Where the call is inconclusive, the potency comes from a doubtful curve fit.
Molecular target: Histone-lysine N-methyltransferase EHMT2 (Homo sapiens) (UniProt Q96KQ7)
Experiment: qHTS Assay for Inhibitors of Histone Lysine Methyltransferase G9a; also: nearly all actives have a fitted effect of over 75% in size
Conditions: G9a H3K9 monomethylation, AlphaScreen, 2 h; activity, negative = inhibition: at 59 µM (top of the series) unless noted
Outline: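 Compounds were preincubated with 20 nM G9a for 15 min, after which biotinylated H3K9 peptide (500 nM) and SAM (20 uM) started a 2 h room-temperature reaction. Monomethylated product was quantified by antibody-based AlphaScreen chemiluminescence.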
% is scaled to controls: 0 for no effect and ±100 for the full control effect; potency is read from the fitted curve at half-maximal effect; tags tell the direction and shape of the fitted curve.

UniProt Q96KQ7, sequence (Q96KQ7 whole entry, looked up): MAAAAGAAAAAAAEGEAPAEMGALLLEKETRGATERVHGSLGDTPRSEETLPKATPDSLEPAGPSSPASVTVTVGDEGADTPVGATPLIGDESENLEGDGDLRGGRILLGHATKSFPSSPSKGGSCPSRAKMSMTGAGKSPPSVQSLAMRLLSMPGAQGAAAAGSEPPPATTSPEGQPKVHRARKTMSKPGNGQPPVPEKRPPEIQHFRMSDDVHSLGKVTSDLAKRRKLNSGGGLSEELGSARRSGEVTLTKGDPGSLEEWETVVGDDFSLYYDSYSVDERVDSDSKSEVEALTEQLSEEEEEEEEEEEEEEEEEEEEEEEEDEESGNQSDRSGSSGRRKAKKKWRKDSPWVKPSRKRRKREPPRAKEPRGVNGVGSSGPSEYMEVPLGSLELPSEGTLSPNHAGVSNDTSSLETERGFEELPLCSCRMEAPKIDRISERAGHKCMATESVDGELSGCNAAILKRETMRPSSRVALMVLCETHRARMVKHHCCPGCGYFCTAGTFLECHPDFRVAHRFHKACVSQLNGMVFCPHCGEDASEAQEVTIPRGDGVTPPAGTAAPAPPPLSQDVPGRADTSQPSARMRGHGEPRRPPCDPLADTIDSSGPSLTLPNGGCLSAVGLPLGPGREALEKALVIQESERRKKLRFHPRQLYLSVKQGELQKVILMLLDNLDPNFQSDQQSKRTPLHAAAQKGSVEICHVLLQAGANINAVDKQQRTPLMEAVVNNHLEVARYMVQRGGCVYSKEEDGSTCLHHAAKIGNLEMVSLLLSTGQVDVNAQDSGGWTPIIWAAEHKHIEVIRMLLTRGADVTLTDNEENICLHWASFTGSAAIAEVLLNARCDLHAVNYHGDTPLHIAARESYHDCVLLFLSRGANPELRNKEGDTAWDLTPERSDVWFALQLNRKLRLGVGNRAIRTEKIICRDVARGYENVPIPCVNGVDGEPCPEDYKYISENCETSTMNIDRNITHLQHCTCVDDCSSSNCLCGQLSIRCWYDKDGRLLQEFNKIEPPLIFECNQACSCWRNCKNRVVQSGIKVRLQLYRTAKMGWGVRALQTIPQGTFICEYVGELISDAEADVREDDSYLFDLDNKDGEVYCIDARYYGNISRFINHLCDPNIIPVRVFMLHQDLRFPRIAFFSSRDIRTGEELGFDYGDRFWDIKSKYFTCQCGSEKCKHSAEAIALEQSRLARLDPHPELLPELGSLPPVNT

Structure (SMILES) | Potency | activity, negative = inhibition
CCOC(=O)C1=NOC2C(=O)N(c3ccc(Cl)cc3Cl)C(=O)C12 (stereo not given) | inconclusive: 56.2 µM [inhibitor, partial curve] | –
Cc1c(O)c(C)c2c(c1O)C(=O)C[C@@H](c1ccccc1)O2 | – | inactive: 17.8% [at 2.33 µM]
Cc1ccc(N2CCN(C(=O)c3cc(C(=O)c4ccccc4C)c[nH]3)CC2)c(C)c1 | inconclusive: 3.55 µM [inhibitor, partial curve] | –
c1ccc(CC2CCN(C3=Nc4cccc5cccc3c45)CC2)cc1 | inconclusive: 70.8 µM [inhibitor, single point] | –
CCN1CCc2c(C#N)c(N3CCCCC3)nc(NCc3ccccc3)c2C1 | inconclusive: 25.1 µM [inhibitor, single point] | –
COc1cc(CNc2ccc(O)cc2)cc(Br)c1OCc1ccccc1 | active: 25.1 µM | –
COc1cccc2sc(N(CCCN(C)C)C(=O)c3ccc(S(=O)(=O)N4CCc5ccccc5C4)cc3)nc12 | inconclusive: 89.1 µM [inhibitor, single point] | –
CCOC(=O)c1c(Nc2ccc(C)c(C)c2)nnc(-c2ccccc2)c1-c1ccccc1 | inconclusive: 0.141 µM [inhibitor, full curve, poor fit] | –
CCC1CCCCN1CCCNC(=O)c1ccc2c(c1)c(C)c(C)n2CC (stereo not given) | inconclusive: 89.1 µM [inhibitor, single point] | –
COc1cccc(C2CC(c3ccc(C)cc3)=NN2C(=O)c2ccccc2F)c1OC (stereo not given) | inactive | –
C[C@@H](NC(=O)[C@@H]1Cc2ccccc2CN1)C(=O)NCC1CCCO1 (stereo not given in full) | active: 50.1 µM | –
CCCCn1c(N)c(N(CC)C(=O)C2CCC2)c(=O)[nH]c1=O | inconclusive: 1 µM [inhibitor, single point] | –
CCCn1c(CCNC(=O)c2ccco2)nc2ccccc21 | inactive | –
O=C(NCc1ccco1)C1CCN(c2nc3ccccc3n2Cc2ccc(F)cc2)CC1 | active: 79.4 µM | –
COc1ccc(C(O)(CCC(C)C)C(CN2CCOCC2)c2ccccc2)cc1 (stereo not given) | inconclusive: 89.1 µM [inhibitor, single point] | –
CCOc1ccccc1C(=O)NCC(=O)NNC(=O)CN(C)S(=O)(=O)c1ccc(Cl)cc1 | – | inactive: -36.4% [at 12.7 µM]
Cc1cccc(OCCCN2CCOCC2)c1 | – | inactive: 31.3% [at 12.7 µM]
COc1nccnc1NS(=O)(=O)c1ccc(NC(=S)NC(=O)/C=C/c2ccc(F)cc2)cc1 | inconclusive: 20 µM [inhibitor, single point] | –
CCc1ccc(C(=O)c2cn(CC(=O)NCCc3ccccc3)c3nc(C)ccc3c2=O)cc1 | inactive | –
COc1ccc(C(=O)CC2(O)C(=O)N(Cc3ccccc3)c3ccc(Br)cc32)cc1 (stereo not given) | inconclusive: 7.94 µM [inhibitor, partial curve] | –
Cc1ccc(C)c(S(=O)(=O)NCc2ccc3c(c2)OCO3)c1 | inconclusive: 50.1 µM [inhibitor, partial curve, poor fit] | –
COc1cc(/C=N/n2cnn(Cc3ccccc3Cl)c2=S)cc(OC)c1OC | active: 31.6 µM | –
CN(c1ccc(C(=O)N2CCN(Cc3ccccc3)CC2)cc1)S(=O)(=O)c1ccc(Cl)cc1 | inconclusive: 0.708 µM [inhibitor, partial curve, poor fit] | –
Cc1cc(C)c(NC(=O)Cn2c(=O)n(CCC(C)C)c(=O)c3cccnc32)c(C)c1 | inactive | –

Structure (SMILES) | Potency | activity, negative = inhibition
C#Cc1ccc(C(=O)Nc2ccc(N3CCC(C)CC3)c(C(N)=O)c2)cc1 | inactive | –
CCN(CC)C(=O)CSc1nnc(-n2nc(C)cc2C)c2ccccc12 | inconclusive: 89.1 µM [inhibitor, partial curve, poor fit] | –
O=C(NCCOc1ccccc1)C1CCC(=O)N(CCc2ccc(Cl)cc2)C1 (stereo not given) | inconclusive: 50.1 µM [inhibitor, partial curve, poor fit] | –
NC(=O)c1ccc2nc(-c3ccccc3)c(-c3ccccc3)nc2c1 | inactive | –
CSc1ccccc1OCc1cc(C(=O)N(C)CCc2c(C)n[nH]c2C)no1 | – | inactive: 43.1% [at 0.0925 µM]
C/C(=N\OCC(=O)Nc1nc2ccccc2s1)c1ccccc1 | inactive | –
CC(=O)c1cccc(NC(=O)Nc2ccc3c(c2)OCO3)c1 | inconclusive: 31.6 µM [inhibitor, partial curve, poor fit] | –
Clc1ccc(SCCOCCN2CCOCC2)cc1 | active: 6.31 µM | –
Cc1ccc2[nH]c3c(c2c1)CN(C(=O)CN1CC(C)OC(C)C1)CC3 (stereo not given) | inconclusive: 3.16 µM [inhibitor, single point] | –
O=C(/C=C/c1ccc(O)cc1)c1ccc(NC2=C(N3CCCCC3)C(=O)c3ccccc3C2=O)cc1 | active: 14.1 µM | –
CC1CCCC(C)N1C(=O)CSc1nc(N)cc(N)n1 (stereo not given) | inactive | –
O=C(O)Cn1c(O)c(C2=c3ccccc3=NC2=O)sc1=O | active: 50.1 µM | –
O=C(NCCSc1c[nH]c2ccccc12)c1ccc(Cl)cc1 | inconclusive: 10 µM [inhibitor, partial curve, poor fit] | –
CCCCc1nc2ccccc2c(NC(=O)CN2CCCC2)c1CCC | active: 20 µM | –
COc1cc(OC)cc(C(=O)N[C@H](C(=O)Nc2nc(-c3ccc(OC)c(OC)c3)cs2)C(C)C)c1 | – | inactive: 20.6% [at 12.7 µM]
COc1cccc(C(c2nnnn2CCc2ccccc2)N2CCN(c3ccccc3)CC2)c1OC (stereo not given) | inconclusive: 28.2 µM [inhibitor, single point] | –
Cc1ccc(NC(=O)c2c(NC(=O)CCC(=O)O)sc3c2CCCCC3)cc1 | active: 28.2 µM | –
COc1cc(NC(=O)Cn2nc(-c3ccc(F)cc3)ccc2=O)ccc1-n1cnnn1 | inactive | –
Oc1c(Cl)cc(Cl)cc1/C=N/c1ncn[nH]1 | inconclusive: 89.1 µM [inhibitor, single point] | –
CC(=O)c1ccc(NC(=O)CN(c2c(C)cccc2C)S(C)(=O)=O)cc1 | inconclusive: 89.1 µM [inhibitor, single point] | –
Cc1ccc(Sc2ccc(C(=O)N3CCOCC3)cc2[N+](=O)[O-])cc1 | inconclusive: 79.4 µM [inhibitor, single point] | –
COc1ccc(/C=N/n2c(-c3n[nH]c4c3CCC4)n[nH]c2=S)cc1OC | inconclusive: 1.12 µM [inhibitor, single point] | –
Nc1cc(N)nc(SCCOc2ccccc2F)n1 | inconclusive: 25.1 µM [inhibitor, single point] | –
Cc1ccc(NC(=O)COC(=O)CN2C(=O)c3ccccc3C2=O)cc1S(=O)(=O)N(C)C | inconclusive: 79.4 µM [inhibitor, single point] | –

Structure (SMILES) | Potency | activity, negative = inhibition
COc1ccccc1N(CC1CO1)S(=O)(=O)c1ccc(C)cc1 (stereo not given) | inactive | –
FC(F)(F)c1cccc(/C=N/NC(=S)NC2CCCCC2)c1 | inactive | –
CC(C)c1ccc(S(=O)(=O)N2CCN(CC(=O)Nc3ccc(Cl)cc3F)CC2)cc1 | – | inactive: -9.75% [at 12.7 µM]
O=C1CC(c2ccc(OCCCCCOc3ccc(C4CC(=O)NC4=O)cc3)cc2)C(=O)N1 (stereo not given) | inconclusive: 7.94 µM [inhibitor, full curve] | –
Cc1ccc(-n2ncc(C(=O)Nc3ccc4c(c3)OCCO4)c2C2CCN(C(=O)OC(C)(C)C)CC2)cc1C | inconclusive: 12.6 µM [inhibitor, partial curve] | –
CCc1c(C)sc(NC(=S)Nc2cccnc2)c1C(=O)OC | active: 44.7 µM | –
O=C(CSc1nc(Cc2ccccc2)nc2ccccc12)c1ccc2c(c1)OCCO2 | inconclusive: 14.1 µM [inhibitor, partial curve] | –
O=C(CNC(=O)c1ccco1)NCC(=O)OC(C(=O)c1ccccc1)c1ccc(Cl)cc1 (stereo not given) | inconclusive: 39.8 µM [inhibitor, single point] | –
Cc1ccc(C(=O)Nc2ncccc2O)cc1S(=O)(=O)N1CCCCC1 | inconclusive: 56.2 µM [inhibitor, partial curve] | –
COCCCNC(=S)NNC(=O)c1cc(-c2cccnc2)nc2ccccc12 | inconclusive: 39.8 µM [inhibitor, full curve] | –
CN(C)c1ccc(CN(C(=O)/C=C/c2ccccc2Cl)C2CCS(=O)(=O)C2)cc1 (stereo not given) | inactive | –
COCCN1CCc2nc(SCC(=O)Nc3ccc(C)c(Cl)c3)[nH]c(=O)c2C1 | inconclusive: 31.6 µM [inhibitor, partial curve, poor fit] | –
CCN(CC(=O)Nc1ccc(NC(C)=O)cc1)C(=O)c1ccccc1SCC(=O)N1CCCC1 | inconclusive: 7.08 µM [inhibitor, single point] | –
Nc1ccc(-c2ccc(N)c([N+](=O)[O-])c2)cc1[N+](=O)[O-] | active: 70.8 µM | –
Cc1c2c(nc3ccccc13)CCC(C)C2 (stereo not given) | inconclusive: 50.1 µM [inhibitor, partial curve, poor fit] | –
O=C(C1=C(O)C(=O)N(CC2CCCO2)C1c1ccccc1F)c1ccco1 (stereo not given) | active: 39.8 µM | –
CC(=O)N/C(=C/c1ccccc1)C(=O)N1CCCCC1 | active: 50.1 µM | –
CC(C)CCOc1cccc(OCC(=O)Nc2ccncc2)c1 | inactive | –
Cc1ccc(NC(=O)CSc2nnc(-c3cccnc3)s2)cc1 | active: 79.4 µM | –
Cc1cnc(C(=O)NCC(=O)Nc2ccccc2Br)cn1 | inconclusive: 44.7 µM [inhibitor, partial curve] | –
Cc1oc(-c2cccc(Cl)c2)nc1CSc1nc2c(c(=O)[nH]1)CCC2 | inconclusive: 89.1 µM [inhibitor, single point] | –
CCNC(=O)COC(=O)C1CCN(S(=O)(=O)c2ccc3c(c2)OCCO3)CC1 | inactive | –

— PubChem BioAssay AID504332 (National Center for Advancing Translational Sciences (NCATS), 2011)
